# Data as given in publication PMC6265484, “Homodimerization regulates an endothelial specific signature of the SOX18 transcription factor” (Nucleic Acids Research, 2018).
# By UniProt entry, the sequences of proteins in these tests, tags left out. Where a name states a change or a piece, a line headed by the entry shows the natural chain unless it says otherwise. Chains listed by the source or under a name are the forms on record and can include a tag or linker.
# UniProt P35713: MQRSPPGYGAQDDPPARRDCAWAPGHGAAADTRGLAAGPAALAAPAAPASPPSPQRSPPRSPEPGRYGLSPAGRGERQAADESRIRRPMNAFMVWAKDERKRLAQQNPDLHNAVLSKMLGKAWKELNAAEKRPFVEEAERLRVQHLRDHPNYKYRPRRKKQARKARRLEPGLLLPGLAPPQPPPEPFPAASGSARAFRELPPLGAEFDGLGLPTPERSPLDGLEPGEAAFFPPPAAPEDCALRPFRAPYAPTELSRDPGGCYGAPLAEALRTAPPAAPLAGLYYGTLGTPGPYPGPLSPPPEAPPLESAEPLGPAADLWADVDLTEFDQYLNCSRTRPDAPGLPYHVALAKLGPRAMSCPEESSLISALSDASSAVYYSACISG
# SOX18DIM/SOX7 swap construct (P35713, form named): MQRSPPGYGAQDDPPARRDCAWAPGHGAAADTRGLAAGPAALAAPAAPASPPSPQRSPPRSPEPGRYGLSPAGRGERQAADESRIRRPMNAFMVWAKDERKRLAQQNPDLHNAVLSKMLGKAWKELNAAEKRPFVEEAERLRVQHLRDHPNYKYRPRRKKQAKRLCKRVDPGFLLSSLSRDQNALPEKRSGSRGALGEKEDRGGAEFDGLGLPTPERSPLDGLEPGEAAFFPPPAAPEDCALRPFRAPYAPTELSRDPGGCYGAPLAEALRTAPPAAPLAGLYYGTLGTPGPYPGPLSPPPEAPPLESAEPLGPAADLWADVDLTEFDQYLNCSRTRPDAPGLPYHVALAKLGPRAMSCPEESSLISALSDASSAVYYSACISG
# SOX18 deletion mutant lacking the first hydrophobic motif (Δ161–168) (P35713, form named): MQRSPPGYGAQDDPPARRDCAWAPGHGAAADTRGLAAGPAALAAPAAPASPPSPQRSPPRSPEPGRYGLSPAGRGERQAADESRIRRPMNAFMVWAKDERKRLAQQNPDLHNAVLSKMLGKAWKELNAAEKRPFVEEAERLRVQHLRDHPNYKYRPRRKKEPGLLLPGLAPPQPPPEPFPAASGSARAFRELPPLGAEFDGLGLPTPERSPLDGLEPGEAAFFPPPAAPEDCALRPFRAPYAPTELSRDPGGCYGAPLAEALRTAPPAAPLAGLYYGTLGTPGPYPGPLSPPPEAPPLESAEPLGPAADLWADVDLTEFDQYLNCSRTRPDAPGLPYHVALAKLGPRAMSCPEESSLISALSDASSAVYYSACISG
# SOX18 deletion mutant that lacks the FRELPPL motif (Δ197–203) (P35713, form named): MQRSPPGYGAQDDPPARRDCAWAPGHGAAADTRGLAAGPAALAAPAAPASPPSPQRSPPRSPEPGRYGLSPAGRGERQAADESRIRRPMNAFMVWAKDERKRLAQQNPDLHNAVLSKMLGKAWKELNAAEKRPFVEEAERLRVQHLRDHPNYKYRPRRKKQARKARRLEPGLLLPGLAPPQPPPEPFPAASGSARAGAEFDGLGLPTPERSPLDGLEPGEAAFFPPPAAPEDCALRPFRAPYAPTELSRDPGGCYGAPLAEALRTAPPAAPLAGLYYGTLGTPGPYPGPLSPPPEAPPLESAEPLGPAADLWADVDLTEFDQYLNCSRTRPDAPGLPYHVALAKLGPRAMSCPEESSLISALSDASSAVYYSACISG
# UniProt Q9BT81: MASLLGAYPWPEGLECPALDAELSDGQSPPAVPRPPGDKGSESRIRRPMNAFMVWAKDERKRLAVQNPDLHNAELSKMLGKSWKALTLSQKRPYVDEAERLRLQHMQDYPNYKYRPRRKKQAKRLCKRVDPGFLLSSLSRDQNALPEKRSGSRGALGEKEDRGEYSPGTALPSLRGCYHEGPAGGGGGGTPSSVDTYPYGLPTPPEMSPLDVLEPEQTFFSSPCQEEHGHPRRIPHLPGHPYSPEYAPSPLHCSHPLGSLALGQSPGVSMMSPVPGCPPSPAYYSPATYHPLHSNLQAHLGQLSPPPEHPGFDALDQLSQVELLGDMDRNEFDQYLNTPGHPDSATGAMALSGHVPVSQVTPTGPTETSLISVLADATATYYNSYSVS
# SOX7DIM/SOX18 swap construct (Q9BT81, form named): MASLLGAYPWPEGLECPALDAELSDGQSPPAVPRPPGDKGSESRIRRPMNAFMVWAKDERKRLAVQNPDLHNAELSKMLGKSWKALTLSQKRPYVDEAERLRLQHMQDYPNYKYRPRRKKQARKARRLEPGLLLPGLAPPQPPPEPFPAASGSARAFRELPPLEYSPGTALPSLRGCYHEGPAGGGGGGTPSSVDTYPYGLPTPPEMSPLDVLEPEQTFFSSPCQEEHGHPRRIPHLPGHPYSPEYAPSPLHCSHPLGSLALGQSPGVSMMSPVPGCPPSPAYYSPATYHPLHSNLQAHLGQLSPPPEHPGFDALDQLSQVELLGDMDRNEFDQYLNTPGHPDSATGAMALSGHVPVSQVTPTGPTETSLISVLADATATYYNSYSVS
# UniProt Q9H6I2: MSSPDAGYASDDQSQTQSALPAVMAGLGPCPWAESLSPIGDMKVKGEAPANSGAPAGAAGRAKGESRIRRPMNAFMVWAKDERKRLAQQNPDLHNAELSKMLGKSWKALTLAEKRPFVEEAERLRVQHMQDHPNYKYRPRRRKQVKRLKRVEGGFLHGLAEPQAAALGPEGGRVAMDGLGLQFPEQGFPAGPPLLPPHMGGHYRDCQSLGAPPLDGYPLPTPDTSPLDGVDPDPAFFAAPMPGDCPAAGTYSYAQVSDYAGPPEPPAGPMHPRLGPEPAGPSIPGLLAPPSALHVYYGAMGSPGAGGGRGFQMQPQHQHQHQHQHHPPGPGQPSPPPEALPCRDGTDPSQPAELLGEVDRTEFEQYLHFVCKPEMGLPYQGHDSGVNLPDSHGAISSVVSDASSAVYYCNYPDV
# UniProt Q06330: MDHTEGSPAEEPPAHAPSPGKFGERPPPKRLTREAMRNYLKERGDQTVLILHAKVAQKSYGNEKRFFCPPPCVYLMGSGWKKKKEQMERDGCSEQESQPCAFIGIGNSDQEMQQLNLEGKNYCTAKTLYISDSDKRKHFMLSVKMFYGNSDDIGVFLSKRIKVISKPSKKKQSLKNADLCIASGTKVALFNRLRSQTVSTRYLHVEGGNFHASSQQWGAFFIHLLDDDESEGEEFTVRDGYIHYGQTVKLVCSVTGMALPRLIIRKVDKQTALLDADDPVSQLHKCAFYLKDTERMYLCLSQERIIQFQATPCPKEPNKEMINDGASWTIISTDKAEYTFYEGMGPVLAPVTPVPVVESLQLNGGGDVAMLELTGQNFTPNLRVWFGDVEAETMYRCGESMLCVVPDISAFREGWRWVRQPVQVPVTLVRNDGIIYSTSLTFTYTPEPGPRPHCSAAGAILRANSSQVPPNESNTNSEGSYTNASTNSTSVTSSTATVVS
# UniProt P23769: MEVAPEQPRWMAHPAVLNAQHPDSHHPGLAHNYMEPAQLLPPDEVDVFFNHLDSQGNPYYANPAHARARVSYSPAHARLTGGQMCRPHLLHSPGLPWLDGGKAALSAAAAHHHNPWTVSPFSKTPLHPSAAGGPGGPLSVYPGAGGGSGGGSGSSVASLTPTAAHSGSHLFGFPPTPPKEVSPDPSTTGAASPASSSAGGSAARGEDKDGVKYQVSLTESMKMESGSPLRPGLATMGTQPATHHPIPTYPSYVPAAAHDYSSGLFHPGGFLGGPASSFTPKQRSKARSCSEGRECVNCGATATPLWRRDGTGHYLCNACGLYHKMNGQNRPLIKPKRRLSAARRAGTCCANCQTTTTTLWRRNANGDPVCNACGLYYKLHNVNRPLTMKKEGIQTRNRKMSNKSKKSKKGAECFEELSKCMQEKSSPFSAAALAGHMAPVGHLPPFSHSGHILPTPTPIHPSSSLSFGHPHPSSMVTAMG
# UniProt Q06413: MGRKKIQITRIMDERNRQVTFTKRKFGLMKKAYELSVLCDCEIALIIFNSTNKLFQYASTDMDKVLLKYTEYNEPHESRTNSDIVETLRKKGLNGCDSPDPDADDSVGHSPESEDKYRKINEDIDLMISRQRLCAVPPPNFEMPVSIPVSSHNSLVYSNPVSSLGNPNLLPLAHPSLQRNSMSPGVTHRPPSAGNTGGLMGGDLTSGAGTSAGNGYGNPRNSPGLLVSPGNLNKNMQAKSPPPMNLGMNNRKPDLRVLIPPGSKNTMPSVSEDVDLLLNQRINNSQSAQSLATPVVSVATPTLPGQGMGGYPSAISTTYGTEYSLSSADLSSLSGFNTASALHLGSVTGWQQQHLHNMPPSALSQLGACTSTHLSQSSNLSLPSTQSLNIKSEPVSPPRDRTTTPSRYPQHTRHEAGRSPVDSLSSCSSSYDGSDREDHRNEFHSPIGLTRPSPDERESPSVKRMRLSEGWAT
# UniProt P48436: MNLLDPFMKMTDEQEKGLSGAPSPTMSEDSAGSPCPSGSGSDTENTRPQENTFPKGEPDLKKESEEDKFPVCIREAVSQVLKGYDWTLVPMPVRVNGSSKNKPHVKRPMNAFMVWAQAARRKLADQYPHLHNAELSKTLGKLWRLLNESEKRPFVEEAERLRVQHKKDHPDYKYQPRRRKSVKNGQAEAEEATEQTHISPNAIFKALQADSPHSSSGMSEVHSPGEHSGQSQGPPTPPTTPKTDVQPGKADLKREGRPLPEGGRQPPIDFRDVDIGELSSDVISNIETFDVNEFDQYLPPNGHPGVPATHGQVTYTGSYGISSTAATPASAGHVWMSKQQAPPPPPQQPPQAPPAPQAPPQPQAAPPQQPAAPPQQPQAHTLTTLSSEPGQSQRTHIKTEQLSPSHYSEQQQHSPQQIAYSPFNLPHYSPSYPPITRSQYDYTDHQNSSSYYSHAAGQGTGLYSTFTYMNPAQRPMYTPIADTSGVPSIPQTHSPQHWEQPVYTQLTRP
# No constants are given. Whether binding was seen depends on the method and setting. For some assays here: In cells and extracts the contact can be indirect. Some entries that bind do so weakly or less than the wild type.
# Columns and labels:
# [1] = biological target: SOX18DIM/SOX7 swap construct (human) (UniProt P35713); experiment: AlphaScreen or HTRF; LTE lysate co-expressing a GFP-tagged and a Cherry-cMyc-tagged protein, diluted in 25 mM HEPES, 50 mM NaCl; anti-cMyc acceptor beads, biotin-labelled GFP-Nanotrap and streptavidin donor beads; room temperature; no enrichment or purification
# [2] = biological target: SOX18DIM/SOX7 swap construct (human) (UniProt P35713); experiment: single-molecule two-colour coincidence fluorescence spectroscopy; GFP- and Cherry-tagged proteins made in LTE, diluted to about 100 pM, confocal detection with 488 and 561 nm lasers, room temperature; coincidence ratio C = mCherry/(GFP + mCherry)
# [3] = biological target: SOX7DIM/SOX18 swap construct (human) (UniProt Q9BT81); experiment: AlphaScreen or HTRF; LTE lysate co-expressing a GFP-tagged and a Cherry-cMyc-tagged protein, diluted in 25 mM HEPES, 50 mM NaCl; anti-cMyc acceptor beads, biotin-labelled GFP-Nanotrap and streptavidin donor beads; room temperature; no enrichment or purification
# [4] = biological target: SOX7DIM/SOX18 swap construct (human) (UniProt Q9BT81); experiment: single-molecule two-colour coincidence fluorescence spectroscopy; GFP- and Cherry-tagged proteins made in LTE, diluted to about 100 pM, confocal detection with 488 and 561 nm lasers, room temperature; coincidence ratio C = mCherry/(GFP + mCherry)
# [5] = biological target: full-length SOX17 (human) (UniProt Q9H6I2); experiment: AlphaScreen or HTRF; LTE lysate co-expressing a GFP-tagged and a Cherry-cMyc-tagged protein, diluted in 25 mM HEPES, 50 mM NaCl; anti-cMyc acceptor beads, biotin-labelled GFP-Nanotrap and streptavidin donor beads; room temperature; no enrichment or purification
# [6] = biological target: full-length SOX17 (human) (UniProt Q9H6I2); experiment: single-molecule two-colour coincidence fluorescence spectroscopy; GFP- and Cherry-tagged proteins made in LTE, diluted to about 100 pM, confocal detection with 488 and 561 nm lasers, room temperature; coincidence ratio C = mCherry/(GFP + mCherry)
# full-length SOX7 (human) [7] = biological target: full-length SOX7 (human) (UniProt Q9BT81); experiment: AlphaScreen or HTRF; LTE lysate co-expressing a GFP-tagged and a Cherry-cMyc-tagged protein, diluted in 25 mM HEPES, 50 mM NaCl; anti-cMyc acceptor beads, biotin-labelled GFP-Nanotrap and streptavidin donor beads; room temperature; no enrichment or purification
# full-length SOX7 (human) [8] = biological target: full-length SOX7 (human) (UniProt Q9BT81); experiment: single-molecule two-colour coincidence fluorescence spectroscopy; GFP- and Cherry-tagged proteins made in LTE, diluted to about 100 pM, confocal detection with 488 and 561 nm lasers, room temperature; coincidence ratio C = mCherry/(GFP + mCherry)
# [9] = biological target: full-length human SOX18 (human) (UniProt P35713); experiment: condition: only with >5 μM DNA harbouring a single consensus SOX binding motif; AlphaScreen or HTRF; as the AlphaScreen of LTE lysates, with rising concentrations of DNA harbouring a single consensus SOX binding motif
# human RBPJ (human) = human RBPJ (human) (UniProt Q06330); experiment: AlphaScreen or HTRF; LTE lysate co-expressing a GFP-tagged and a Cherry-cMyc-tagged protein, diluted in 25 mM HEPES, 50 mM NaCl; anti-cMyc acceptor beads, biotin-labelled GFP-Nanotrap and streptavidin donor beads; room temperature; no enrichment or purification
# human GATA2 (human) = human GATA2 (human) (UniProt P23769); experiment: as above
# [10] = biological target: full-length human SOX18 (human) (UniProt P35713); experiment: as above
# human MEF2C (human) = human MEF2C (human) (UniProt Q06413); experiment: as above
# [11] = biological target: SOX18 homodimer BiFC reporter (NmVENUS155-SOX18S and CmVENUS155-SOX18S) (UniProt P35713); experiment: split reporter; mVENUS split at amino acid 155; mRNAs of the two halves co-injected into single-cell zebrafish embryos, live confocal imaging at 4-5 hpf
# SOX9 = SOX9 (UniProt P48436); experiment: AlphaScreen or HTRF; LTE lysate co-expressing a GFP-tagged and a Cherry-cMyc-tagged protein, diluted in 25 mM HEPES, 50 mM NaCl; anti-cMyc acceptor beads, biotin-labelled GFP-Nanotrap and streptavidin donor beads; room temperature; no enrichment or purification
substance,measurement,setting,value
SOX18DIM/SOX7 swap construct (from UniProt P35713 1-153; P35713 204-384),binding,[1],no binding
same,binding,[2],no binding
SOX7DIM/SOX18 swap construct (from UniProt Q9BT81 1-113; Q9BT81 164-388),binding,[3],binds
same,binding,[4],binds
full-length SOX17 (from UniProt Q9H6I2 1-414),binding,[5],no binding
same,binding,[6],no binding
full-length SOX7 (from UniProt Q9BT81 1-388),binding,full-length SOX7 (human) [7],no binding
same,binding,full-length SOX7 (human) [8],no binding
full-length human SOX18 (from UniProt P35713 1-384),binding,[9],no binding
same,binding,human RBPJ (human),binds
same,binding,human GATA2 (human),no binding
same,binding,[10],binds
same,binding,human MEF2C (human),binds
SOX18 homodimer BiFC reporter (NmVENUS155-SOX18S and CmVENUS155-SOX18S) (from UniProt P35713 1-384),binding,[11],binds
SOX18 deletion mutant lacking the first hydrophobic motif (Δ161–168) (from UniProt P35713 1-384),binding,[10],binds
SOX9 (from UniProt P48436 1-509),binding,SOX9,binds
SOX18 deletion mutant that lacks the FRELPPL motif (Δ197–203) (from UniProt P35713 1-384),binding,[10],no binding
